Measurements as given in PubChem BioAssay AID256 (DTP/NCI, 2004).
Inconclusive results and toxic doses are left out. Some entries of the source have several records that differ or are many. They are shown here; other results are not. An entry can have further records. The values listed for one entry repeat one measurement in other runs, samples, wells, individuals or studies. A tag in brackets gives the origin of a value. A, B and so on number the origins entry by entry. Brackets with × stand for listed records that agree.

Tested on: CD2F1 mice, L1210 leukemia ip, survival T/C
Assay: NCI In Vivo Anticancer Drug Screen. Data for tumor model L1210 Leukemia (intraperitoneal) in CD2F1 (CDF1) mice
Conditions: higher = longer survival
Outline: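 Vehicle-treated tumor-bearing mice served as controls (C) for compound-treated mice (T). Reported figure is T divided by C.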

**Q.** Which T/C (endpoint: median survival time, dose: 75.0 mg/kg/injection, schedule: Q01DX005 (ip), vehicle: saline) does the source give for NCc1cc(O)c(O)c(O)c1 here?
**A.** The T/C was 121 % of control and 151 % of control.

**Q.** Which T/C (endpoint: median survival time, dose: 25.0 mg/kg/injection, schedule: Q01DX009 (ip), vehicle: distilled water + Tween-80) does the source give for CCOC(=O)c1ccc(NN=NCCF)cc1 here?
**A.** The T/C was 91 % of control (2×) and 186 % of control.

**Q.** Which T/C (endpoint: median survival time, dose: 8.0 mg/kg/injection, schedule: Q04DX002 (ip), vehicle: saline with Tween-80) does the source give for CCC1(O)C(=O)OCc2c1cc1n(c2=O)Cc2cc3cc4c(cc3nc2-1)OCO4 (stereo not given) here?
**A.** The T/C was 110 % of control and 186 % of control.

**Q.** With CC(C)(C[NH-])C[NH-].[Cl][Pt+2]([Cl])([Cl])[Cl] as the molecule, how does the T/C (endpoint: median survival time, dose: 3.2 mg/kg/injection, schedule: Q04DX003 (ip), vehicle: water) read?
**A.** The T/C was 98 % of control, 102 % of control, 172 % of control.

**Q.** CS(=O)(=O)CS(=O)(=O)OCCF was tested. Which T/C (endpoint: median survival time, dose: 6.25 mg/kg/injection, schedule: Q01DX009 (ip), vehicle: saline) did it give?
**A.** Its T/C is 116 % of control and 170 % of control.

**Q.** Which T/C (endpoint: mean survival time, dose: 1.56 mg/kg/injection, schedule: Q01DX005 (ip), vehicle: other) does the source give for Cc1cn(C2CC3[O][Sn]([c]4ccccc4)([c]4ccccc4)[O]CC3O2)c(=O)[nH]c1=O (stereo not given) here?
**A.** Its T/C is 96 % of control, 105 % of control, 156 % of control.

**Q.** What about the T/C (endpoint: mean survival time, dose: 3.13 mg/kg/injection, schedule: Q01DX005 (ip), vehicle: other) of the same molecule?
**A.** Its T/C is 101 % of control, 105 % of control, 170 % of control.

**Q.** How did the T/C (endpoint: mean survival time, dose: 50.0 mg/kg/injection, schedule: Q04DX003 (ip), vehicle: Klucel (hydroxypropylcellulose) (HPC)) turn out when CC(O)C(=O)O.CCCCOC(=O)CC(O)(CC(=O)OCCCC)C(=O)OCCCC.[Cl-].[Cl-].[NH2-].[NH2-].[Pt+4] was run?
**A.** The T/C was 119 % of control, 191 % of control [sample A] and 113 % of control (2×) [sample B].

**Q.** Which T/C (endpoint: mean survival time, dose: 200.0 mg/kg/injection, schedule: Q01DX009 (ip), vehicle: saline) does the source give for CC(=O)OCC1OC(N2CN=C(N)NC2=O)C(OC(C)=O)C1OC(C)=O (stereo not given) here?
**A.** The T/C was 117 % of control and 160 % of control.

**Q.** With CNC(=O)c1ccccc1N=NN(C)C as the molecule, how does the T/C (endpoint: mean survival time, dose: 150.0 mg/kg/injection, schedule: Q01DX009 (ip), vehicle: Klucel (hydroxypropylcellulose) (HPC)) read?
**A.** The T/C was 112 % of control, 120 % of control, 152 % of control.

**Q.** For COc1ccc(OC)c(NC(=O)N2CCCC(C)C2)c1 (stereo not given), which T/C (endpoint: mean survival time, dose: 200.0 mg/kg/injection, schedule: Q01DX009 (ip), vehicle: other) is on record?
**A.** Its T/C is 95 % of control and 158 % of control.

**Q.** Which T/C (endpoint: mean survival time, dose: 3.12 mg/kg/injection, schedule: Q01DX009 (ip), vehicle: saline with Tween-80) does the source give for CCNC(=O)OCc1c(COC(=O)NCC)c(-c2ccc(Cl)c(Cl)c2)n2c1CCC2 here?
**A.** The T/C was 116 % of control, 120 % of control, 164 % of control.

**Q.** CCN(CC)CCNc1ccc(C)c2sc3ccccc3c(=O)c12 was tested. Which T/C (endpoint: median survival time, dose: 100.0 mg/kg/injection, schedule: Q01DX009 (ip), vehicle: saline) did it give?
**A.** Its T/C is 111 % of control, 150 % of control, 186 % of control.

**Q.** With S=c1nc[nH]c2nc[nH]c12 as the molecule, how does the T/C (endpoint: mean survival time, dose: 200.0 mg/kg/injection, schedule: Q04DX003 (ip), vehicle: alkali diluted with water) read?
**A.** The T/C was 101 % of control and 174 % of control.

**Q.** For O=C(O)c1ccc(C(=O)O)o1.[NH-]C1CCCCC1[NH-].[Pt+2], which T/C (endpoint: mean survival time, dose: 10.0 mg/kg/injection, schedule: Q04DX003 (ip), vehicle: dextrose) is on record?
**A.** The T/C was 120 % of control and 178 % of control.
